# Source: the supplement of paper PMC11417369
# ± gives the standard deviation of the averaged measurements. This is one part of the list.
# Test system: PfAP2-I AP2 domain 3 (GST-tagged)
# Experiment: gcPBM binding intensity (ln(normalized median fluorescence intensity)); higher = stronger DNA binding
# In short: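 After 1 h on an Agilent 4 × 180k array of primer-extended double-stranded 36-bp intergenic genomic probes and negative controls, bound GST-tagged P. falciparum DNA-binding domains were detected with Alexa488 anti-GST antibody and scanned at 488 nm. The domains had been expressed in E. coli, and binding took place in 1× PBS with 1% milk, 0.2 mg/ml BSA, 0.5% salmon testes DNA and 0.03% Triton X-100. Binding intensity is the highest Masliner-normalised natural-log median intensity across replicate spots of either probe orientation.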
row,Sequence,gcPBM binding intensity (ln)
1,TAAATATAGGGTAATAGTACATAATTATATTCTTTT [XGTACX_site3883],7.51 ± 0.56
2,AATGGATTAGCTAGCACACACAAAAAAAAAAAAAAA [CACACA_site3031],8.07 ± 0.61
3,TACATATTTGTATATGCACACATAAATTTTTCCATT [CACACA_site9148],8.97 ± 0.15
4,AAATATTTATACCACACACACATACCTCTATTTGTA [CACACA_site6957],8.03 ± 0.56
5,GTATATATATTTGTACGTACATATTGTTGTAAACAC [XGTACX_site8833],8.3 ± 0.16
6,TTTTTTATTGTGATACGTATATTATTTTATGATTAA [GTGCAC_negctrl_site202],7.87 ± 0.69
7,AAGAGAGACATCAACACACATACGTATGTATAGAAA [CACACA_site1397],7.64 ± 0.44
8,TTCATTTTAATAATATGTACATAATATATTTAAAAA [XGTACX_site634],7.785 ± 0.064
9,CGTATGCGTATATACACACCCACGTATATATATAAA [CACACA_site3200],8.02 ± 0.34
10,ATTTTTAATCATTTACAACCTAGTGATTATACAAAT [CACACA_negctrl_site1089],7.77 ± 0.61
11,ATATAATAATTGTACACATGCACACACAAATATTAT [TGCATGCA_site204],8.59 ± 0.34
12,TATATTTATGTATATGTGCACATAAATTTAAGAATG [GTGCAC_site9512],9.68 ± 0.19
13,ATAGCCAAAAATCATGCACACCTAAAAAAAAAAAAA [CACACA_site8826],8.715 ± 0.064
14,TTTTTTATTAAAAGCGAAAAAAATGAAAACTTTTTT [GTGCAC_negctrl_site605],7.52 ± 0.59
15,GAAGTAGATGGAAAAGTGCACTGTAATGGTTATATT,10.6 ± 0.035
16,TTTTTAATTAACTTTGTAAACTTATATATATATATA [TGCATGCA_negctrl_site311],9.22 ± 0.45
17,TTAAAGCACCCATGCACACACACAAGGGAAAAGAAA [CACACA_site4289],10.9 ± 0.92
18,AAGGAATATTAAGTGGGTACTAAAAAAAAATTAATT [XGTACX_site331],7.88 ± 0.64
19,TGTATATAGAAACATACACACATATTAATTTTACAT [CACACA_site3126],7.62 ± 0.54
20,TCCAATTAAATATATGAACACACATGTGAACTTTCT [CACACA_site9318],7.54 ± 0.46
21,TTAAGTCATAAATAAAGTACATAAATATAATATATA [XGTACX_site6304],7.67 ± 0.23
22,ATGTAAATGTTATTATGTACATATTTATTCTTCAAA [XGTACX_site7377],7.75 ± 0.47

row,Sequence,gcPBM binding intensity (ln)
1,GGGGGTAGGGGAAGAAGTACAATGATCACTACAGTA [XGTACX_site1169],9.54 ± 0.13
2,GTTAAAATTTGTCAATGTACAGAAATAATAAAAAAA [XGTACX_site1879],7.97 ± 0.62
3,AAAGTTTTTACCAAGTGTACATATATATATATATAT [XGTACX_site5786],9.35 ± 0.27
4,TATTTTTTTTAGCGTACATGCAAAAAAAAAAAAAAA [TGCATGCA_site555],8.2 ± 0.51
5,GTTTATTTATTTTATGTGCACATATAACAAAAAAAA,10.36 ± 0.028
6,TTTTTTCTTTAATACTCAATATGATAAAAGTAACAC [XGTACX_negctrl_site163],7.83 ± 0.39
7,AAAAATAAAAAGAATTGTACATATAAATCATATACA [XGTACX_site6860],7.33 ± 0.29
8,GACCCAATGAAAAGGTCACACATTTTTTCTTTTCGA [CACACA_site5074],7.38 ± 0.76
9,TAAAAATATATAAACAGTACATAAATTAAATAAATA [XGTACX_site6962],7.54 ± 0.46
10,ATATAAACATGTTTGTGTACGTAATATGAAAAATAA [XGTACX_site8157],8.38 ± 0.33
11,GTATGTATAATATACACACTCACAAGCATTCAAATA [CACACA_site267],7.63 ± 0.5
12,AAATATTATACAAAAAAAAAAAAAAAAAAAATATAT [CACACA_negctrl_site52],7.57 ± 0.5
13,ATTTTGTATATATTTTGTACATATTTTGTATATATT [XGTACX_site885],7.73 ± 0.68
14,TTGTTTTTAAGAAAAACACACACTCCTGTTATTTTA [CACACA_site9230],7.43 ± 0.65
15,TTAGGACAAAAAAAAATAAAAATAAAATAAAATAAT [CACACA_negctrl_site1613],7.54 ± 0.64
16,ATTTTTTTTTTTATAGTGGAACCACATTTGCCATTT [CACACA_negctrl_site1247],7.92 ± 0.63
17,TATTAAATGAAACAAACACACATAGCCTTTAAATAT [CACACA_site1560],7.66 ± 0.58
18,ATATATATATCATATTGTACATATTATTGTATAATC [XGTACX_site5020],8.85 ± 0.028
19,AAATTATATATATTTACATGCAATATAATGAAATAA [TGCATGCA_site229],7.66 ± 0.67
20,ATAAAATAAAACAGAGCACACATTTTATTTACATTC [CACACA_site696],7.89 ± 0.41
21,TAAATTATAATAAATACACACAAATTATAATTCTAT [CACACA_site3942],7.71 ± 0.42
22,CATTTTATAAAAAGCACACATATAGTTATATGCACA [CACACA_site3691],10.7 ± 0.91
